Results on two molecules are retold here after US20220048996A1 (F STAR BETA, published 2022).

The target of the assay is T1, human CD137 ligand expressed on DO11.10 cells (human, UniProt P41273).
T1 construct: whole, on cells
Put plainly: flow cytometry. Background: A flow cytometer gives signals particle by particle.

T1 sequence (P41273 whole entry): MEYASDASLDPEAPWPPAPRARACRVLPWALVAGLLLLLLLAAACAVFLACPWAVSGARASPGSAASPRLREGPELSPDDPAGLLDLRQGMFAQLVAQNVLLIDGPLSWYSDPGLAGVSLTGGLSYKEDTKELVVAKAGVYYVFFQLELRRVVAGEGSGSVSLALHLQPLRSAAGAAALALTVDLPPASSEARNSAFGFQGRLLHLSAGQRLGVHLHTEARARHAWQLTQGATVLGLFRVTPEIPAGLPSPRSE

B1: hCD137-Avi-His (receptor)
chain: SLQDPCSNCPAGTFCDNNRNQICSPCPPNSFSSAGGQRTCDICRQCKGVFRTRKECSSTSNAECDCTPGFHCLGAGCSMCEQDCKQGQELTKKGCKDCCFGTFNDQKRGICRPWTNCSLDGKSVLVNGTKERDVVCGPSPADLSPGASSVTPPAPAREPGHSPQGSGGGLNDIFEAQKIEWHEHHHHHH
notes: Monomer; also called human CD137-Avi-His
As to B1, the binding result is recorded as “binds”.

B2: hCD137-mFc-Avi (Fc fusion)
chain: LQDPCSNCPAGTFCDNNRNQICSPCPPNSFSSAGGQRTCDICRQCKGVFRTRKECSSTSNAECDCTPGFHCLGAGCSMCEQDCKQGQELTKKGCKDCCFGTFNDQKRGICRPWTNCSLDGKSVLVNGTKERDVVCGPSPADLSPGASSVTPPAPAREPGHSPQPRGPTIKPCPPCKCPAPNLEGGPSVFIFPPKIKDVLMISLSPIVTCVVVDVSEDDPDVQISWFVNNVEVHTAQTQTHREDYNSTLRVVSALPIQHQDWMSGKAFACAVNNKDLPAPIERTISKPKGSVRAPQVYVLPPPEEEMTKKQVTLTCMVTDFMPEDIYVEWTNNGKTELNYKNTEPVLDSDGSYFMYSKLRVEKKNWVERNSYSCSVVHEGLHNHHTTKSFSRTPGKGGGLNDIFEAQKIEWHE
notes: Dimer; a biotinylated version was used where the text says so; also called human CD137-mFc-Avi; hCD137-mFc-Avi-Bio
For B2, the binding result was “binds”.
